# Data: the supplement of paper PMC12462457
# “And” between values parts separate entries of the source, which are not always exact repeats. Equal entries are not always repeated. Structures can show the parent of a compound that is named as a salt. ± gives the standard deviation of the averaged measurements. Some of the results follow.
# Test system: OVCAR8
# Assay: cell count relative to DMSO vehicle (fold change); OVCAR8 is a high-grade serous ovarian cancer line and CX-5461 an RNA polymerase I inhibitor; higher = more surviving senescent cells (less killing)
# Settings: senescence inducer: CX-5461 3 µM 48 h, then 6 d recovery (CX senescent), exposure time 24 h
Structure (SMILES),cell count (compound dose 1 µM),cell count (compound dose 5 µM)
N[C@@H]1CCCN(c2c(/C=C3\SC(=O)NC3=O)cccc2-c2ccccc2)C1,1.01 ± 0.37,0.959 ± 0.16
CO[C@H]1C[C@@H]2CC[C@@H](C)[C@@](O)(O2)C(=O)C(=O)N2CCCC[C@H]2C(=O)O[C@H]([C@H](C)C[C@@H]2CC[C@@H](O)[C@H](OC)C2)CC(=O)[C@H](C)/C=C(\C)[C@@H](O)[C@@H](OC)C(=O)[C@H](C)C[C@H](C)/C=C/C=C/C=C/1C [Rapamycin],1.19 ± 0.04,1.16 ± 0.13
Cc1[nH]c(/C=C2\C(=O)Nc3ccccc32)c(C)c1CCC(=O)O [Orantinib],0.926 ± 0.11,0.939 ± 0.18
CCOc1ccc(-c2cn(C)nc2-c2cc(OC)c(OC)c(OC)c2)cc1 [Tubulin inhibitor 1],1.11 ± 0.044,1.33 ± 0.059
COc1cc(OC)cc(N(CCNC(C)C)c2ccc3ncc(-c4cnn(C)c4)nc3c2)c1 [Erdafitinib],0.966 ± 0.21,0.751 ± 0.0085
COc1cc2c(cc1OC)-c1cc3ccc(OC)c(OC)c3c[n+]1CC2,1.03 and 1.1,1 and 1.09
Cc1cc(-c2nc(-c3ccc(OC(F)(F)F)cc3)no2)nn1Cc1ccnc(N2CCN(C3CC3)CC2)c1,1.08 ± 0.1,1.01 ± 0.26
CSc1cccc(Nc2ncc3cc(-c4c(Cl)cccc4Cl)c(=O)n(C)c3n2)c1,0.216 ± 0.15,0.059 ± 0.04
Cc1c(-c2ccc(N3CCc4cccc(C(=O)Nc5nc6ccccc6s5)c4C3)nc2C(=O)O)cnn1CC12CC3CC(CC(C3)C1)C2,1.02 ± 0.09,1.087 ± 0.0014
Cc1cc(N2CCOCC2)ccc1Nc1nc(NC2CCCCC2)c2[nH]cnc2n1,1.17 ± 0.23,1.11 ± 0.17
O=c1c(-c2ccc(O)cc2)coc2cc(O)cc(O)c12,0.936 ± 0.13,1.14 ± 0.18
Cc1nc(Nc2n[nH]c3c2CN(C(=O)N[C@H](CN(C)C)c2ccccc2)C3(C)C)c2sccc2n1,0.83 ± 0.085,0.405 ± 0.011
CCn1cc(-c2ccnc3[nH]c(-c4cccc(CN(C)C)c4)cc23)c(-c2ccc(NC(=O)N(C)C)cc2)n1,0.94 ± 0.086,0.823 ± 0.24
CCCCCCC/C=C/C(=O)CCc1ccc(O)c(OC)c1 [[8]-Shogaol],1.13 ± 0.13,1.05 ± 0.051
C[C@@H]1O[C@@H](O[C@@H]2[C@@H](O)[C@H](OCCc3ccc(O)c(O)c3)O[C@H](CO)[C@H]2OC(=O)/C=C/c2ccc(O)c(O)c2)[C@H](O)[C@H](O)[C@H]1O [Verbascoside],1.13 ± 0.22,1.13 ± 0.32
O=C(O[C@@H]1Cc2c(O)cc(O)cc2O[C@@H]1c1cc(O)c(O)c(O)c1)c1cc(O)c(O)c(O)c1 [(-)-Epigallocatechin Gallate],0.954 ± 0.22,1.13 ± 0.049
Cc1cnc(Nc2ccc(N3CCN(C)CC3)cc2)nc1Nc1cccc(S(=O)(=O)NC(C)(C)C)c1,0.896 ± 0.096,0.194 ± 0.16
COc1ccc(-c2oc3c(CC=C(C)C)c(O)cc(O)c3c(=O)c2O[C@@H]2O[C@@H](C)[C@H](O)[C@@H](O)[C@H]2O)cc1 [Baohuoside I],0.974 ± 0.2,0.899 ± 0.067
OCC1(O)COc2cc(O)ccc2-c2cc(O)c(O)cc2C1 (stereo not given) [Protosappanin B],1.18 ± 0.031,1.06 ± 0.049
CC[C@@]1(O)C(=O)OCc2c1cc1n(c2=O)Cc2cc3cc(O)ccc3nc2-1 [(S)-10-Hydroxycamptothecin],0.795 ± 0.14,0.655 ± 0.013

Structure (SMILES),cell count (compound dose 1 µM),cell count (compound dose 5 µM)
CN1CCN(CCCNc2ncc(Cl)c(-c3cc4c(C(=O)NC5CC5)cccc4s3)n2)CC1,1.18 ± 0.19,1.13 ± 0.038
NC1(c2ccc(-c3nc4ccn5c(=O)[nH]nc5c4cc3-c3ccccc3)cc2)CCC1 [MK-2206 (dihydrochloride)],1.04 ± 0.21,1.06 ± 0.18
CC(C)=CCC[C@@H](C(=O)O)[C@H]1CC[C@@]2(C)C3=CC[C@H]4C(C)(C)[C@@H](O)CC[C@]4(C)C3=CC[C@]12C [3-Dehydrotrametenolic acid],1.01 ± 0.16,0.966 ± 0.13
C[C@@H]1O[C@@H](Oc2c(-c3ccc(O)c(O)c3)oc3cc(O)cc(O)c3c2=O)[C@H](O)[C@H](O)[C@H]1O [Quercitrin],1.06 ± 0.23,1.07 ± 0.1
C[C@@H]1CC[C@@]2(NC1)O[C@H]1C[C@H]3[C@@H]4CC=C5C[C@@H](O[C@@H]6O[C@H](CO)[C@@H](O[C@@H]7O[C@@H](C)[C@H](O)[C@@H](O)[C@H]7O)[C@H](O)[C@H]6O[C@@H]6O[C@@H](C)[C@H](O)[C@@H](O)[C@H]6O)CC[C@]5(C)[C@H]4CC[C@]3(C)[C@H]1[C@@H]2C [Solamargine],0.998 ± 0.12,0.0105 ± 0.0064
O=C(O)Cc1ccccc1Nc1c(Cl)cccc1Cl [Diclofenac (potassium)],1.12 ± 0.047,1.06 ± 0.11
O=C(O)Cc1ccccc1Nc1c(Cl)cccc1Cl [Diclofenac],1.06 ± 0.017,1.02 ± 0.025
O=C(O)Cc1ccccc1Nc1c(Cl)cccc1Cl,1.137 ± 0.011,1.13 ± 0.053
Cc1nn(C)c2nc(NNC(=O)Nc3cc(Cl)nc(Cl)c3)cc(C(C)C)c12,1.15 ± 0.15,1.09 ± 0.2
CC1(C)OC(=O)C=C[C@]2(C)[C@H]3CC[C@@]4(C)[C@H](c5ccoc5)OC(=O)[C@H]5O[C@]54[C@]3(C)C(=O)C[C@@H]12 [Obacunone],1.01 ± 0.05,0.924 ± 0.044
O=C(O)c1cc(=O)c2cccc(O)c2[nH]1,1.07 ± 0.093,1.04 ± 0.11
O=c1[nH]cc(F)c(=O)[nH]1 [5-Fluorouracil],1.09 ± 0.12,1.1 ± 0.1
CNC(=O)c1ccccc1Oc1nc(Nc2cc(OC)c(OC)c(OC)c2)ncc1Br,1.2 ± 0.24,0.998 ± 0.04
N#C[C@H]1[C@H](O)[C@@H](CO)O[C@H]1n1ccc(N)nc1=O [CNDAC (hydrochloride)],0.984 ± 0.12,0.993 ± 0.16
O=C(O)CSc1cc(NS(=O)(=O)c2ccc(Br)cc2)c2ccccc2c1O,1.04 ± 0.04,1.1 ± 0.2
Nc1ncnc(N[C@@H]2O[C@H](CO)[C@@H](O)[C@H]2O)c1[N+](=O)[O-] [Clitocine],1.21 ± 0.071,1.08 ± 0.03
N[C@@H](CCC(=O)O)C(=O)O [L-Glutamic acid],1.04 ± 0.28,0.987 ± 0.07
COc1cc2c(cc1O)CC[C@@H]1[C@@H]2CC[C@]2(C)[C@@H](O)CC[C@@H]12 [2-Methoxyestradiol],1.17 ± 0.048,1.17 ± 0.13
O=c1[nH]c(=O)n([C@@H]2O[C@H](CO)[C@@H](O)[C@H]2O)cc1F [5-Fluorouridine],1.08 ± 0.2,1.03 ± 0.06
NC(=O)c1ccc2nc(-c3ccc(Oc4ccc(Cl)cc4)cc3)[nH]c2c1,1.18 ± 0.25,1.23 ± 0.31
